Measurements published in the RNAGym collection of RNA variant scans (doi:10.7554/elife.90254).
Read counts are not given, so values of variants with three or more changes are uncertain.

B1: LINE1-mini (parent)
chain: GGCAGAGCUCAACACAGCGUGGCAAAGUGGCUGUGGCUAGACUGCC

Variants of: B1
Test: self-cleavage, relative activity (ratio to wild type); higher = more cleavage; in vitro, sequencing; the parent is a self-cleaving ribozyme

| Variant | self-cleavage |
| --- | --- |
| GGCAGAGCUCACCACCGCGUGGCAAAGUGGCUGUGUCAAGACUGCC | 0.1 |
| GGCAGAGCUCUACACAGCGUGGCAAAGUGGCUACGGCUAGACUGCC | 0.02 |
| GGCAGAGCUCUACACAGCGUGGCAAAGUGACUGUGAGUAGACUUCC | 0.01 |
| GGCAGAGCUCUACACAGCGUGGCAAAGUGGCAGUGGGUAGACUGUC | 0 |
| GGCAGAGCUCUACACAACAUGGCAACGUGGCUGUGGCUAGACUGCC | 0.08 |
| GGCAGAGCUCACCGCAGCGUGGCAAAGUGGCUGUGGGUAGACUGCC | 0.02 |
| GGCAGAGCUCUACACAGCGUGUCAUAGAGGCUGUGCGUAGACUGUC | 0 |
| GGCAGAGCUCUACACAGCGUGGCAAAGUGGCUGUCGCUGGCCUGCC | 0 |
| GGCAGAGCUCUACACAGCGUGGCAAAGUGUCUGUAUCUAGACUGAC | 0.02 |
| GGCAGAGCUCUACACAACGUGGCAAAGUGGAUGUGGCUAGAUUGCC | 0.02 |
| GGCAGAGCUCUACACAGCGUGGCAAAAUAGCUGUGGCUAGACUGCC | 0.22 |
| GGCAGAGCUCUACACAGCGUGGCAAAGUGGCUGUGACUAGACUGCA | 0.02 |
| GGCAGAGCUCUACACAGCGUGGCAAAGUUGCUGUGGCUAGAGUGCC | 0 |
| GGCAGAGCUCACCACCGUGUGGCAAAGUGGCUGUGGCUAGACUGCC | 0.05 |
| GGCAGAGCUCUACACAGCGUGACAAAGUGGCUGUGGCUAGCCUGCC | 0.01 |
| GGCAGAGCUCUACACACCAUGGCAAAGUGGCUGUGGCUAGACUGCC | 0.18 |
| GGCAGAGCUCUACACAGCCUGGCAAACUGGCUGUGGCUAGACUGCC | 0.01 |
| GGCAGAGCUCUACACAGCGUGGCAAAGUGGCUUUGGCUAGUCUUCC | 0 |
| GGCAGAGCUCUACACAUCUUGGCAAAGUGGCUGUGGCUAGACUGAC | 0.04 |

| Variant | self-cleavage |
| --- | --- |
| GGCAGAGCUCUACACAGCGUGGCAAAGUGGCUGUGGCUAGACAGCU | 0.02 |
| GGCAGAGCUCUACACAGCUUGGCAAAGUGGCUGUGGCUAGUCUGCC | 0.02 |
| GGCAGAGCUCUACACAGCGUGGCAAAGUUGCUGUGGCUAGACUCCC | 0.08 |
| GGCAGAGCUCUACACAGCGUGCCCAAGUGGCUUUUGCUAGAGUGCC | 0 |
| GGCAGAGCUCUACACAGCAUGGCAAAGUGGCUGUGGUUAGACUGCC | 0.03 |
| GGCAGAGCUCUACACAUCGUGGCAAAAUGGCUGAGGCUAGACUGCC | 0.03 |
| GGCAGAGCUCUACACAGCGUGGCAAAGGGGCUGGGGCUAGACUUCC | 0 |
| GGCAGAGCUCUACACAGCGUGGCAAAGUGGCUGUGACUAAACUGCC | 0.01 |
| GGCAGAGCUCUACACAGCGUGGCAAAGUGGCUGUCGCUAGACUACC | 0.04 |
| GGCAGAGCUCUACACAGCGUGGCAAAGUGGCUGUCGCUAGACUUCC | 0.04 |
| GGCAGAGCUCUACACAGCAUGGCAAAUUGGCUGUGGCUAGACUGCC | 0.1 |
| GGCAGAGCUCUACACAGCGUGGCAAAGUGGCUAUGCCUAGAUUGCC | 0.02 |
| GGCAGAGCUCUACACAGCAUGGCAAAGUGGCUGUGGCUAGACUGCA | 0.12 |
| GGCAGAGCUCUACACAGCGCGGCAAAGCGGCUGUGGCAAGACUGCC | 0.01 |
| GGCAGAGCUCUACACAACGUGGUAAAGUGGCUGUGGCUAGACUGCC | 0 |
| GGCAGAGCUCUACACAGCGUGGCAAAGUGGCCGUGGCUACACUGCC | 0.02 |
| GGCAGAGCUCUACACACCGUGCCAAAGUGGCUGUGGCUAGACUGGC | 0.01 |
| GGCAGAGCUCUACACAGCGCGGCAAAGUGGCUGUGGCUGGACUGCC | 0.03 |
| GGCAGAGCUCUACACAGCGUGGCAAAGUGGCUAUGGCUAGAGUGCC | 0.02 |

| Variant | self-cleavage |
| --- | --- |
| GGCAGAGCUCUACACAGCGUGUCAGAGUGGCUUUGGCUAGACUGAC | 0.04 |
| GGCAGAGCUCUACACAGCGUGGCAAAGUGUCUGUGGCCAGACUGCC | 0.04 |
| GGCAGAGCUCUACACACCGUGGCGAAGUGGUUGUGGCUAGACUGGC | 0 |
| GGCAGAGCUCUACACAACGUGGCAAAAUGGCUGUGGCUAGACUGCC | 0.08 |
| GGCAGAGCUCACCUCAGAGUGGCAAAGGGGCUGUGGCUAGACUUCC | 0 |
| GGCAGAGCUCUACACAGCGUGACAAAGUGGCUGUGGCUAGACUGCA | 0.35 |
| GGCAGAGCUCUACACAGCGUAGAAAAGUGGCUGUGGCUAGACUGCC | 0.53 |
| GGCAGAGCUCUACACAGCGUGGCAAAGUGGCUGAGGAAAGUCUGAC | 0.01 |
| GGCAGAGCUCUACACAGCGUGGCAAAGUGGCUGUUGAUACUCUGAC | 0.03 |
| GGCAGAGCUCUACACAGCGUGGCAAAGUGGCUGGGGCUAGGCUGGC | 0.01 |
| GGCAGAGCUCUACACAGCGUGGCAAAGUGGCUGAGGCUUGACUCCC | 0.01 |
| GGCAGAGCUCUACACAGCGUCGCAAAGUGGCUGUGGCUAGACUCGC | 0.02 |
| GGCAGAGCUCUACACAGCGUGGCAAAGUGGCUGGGGCUAUACUGCC | 0.01 |
| GGCAGAGCUCUACACAGCGUGGCAAAGUCGCUGUGGCUAGACUGUC | 0.13 |
| GGCAGAGCUCUACACAGCGUCCCAACGUGACUGUGGCUAGACUUCC | 0.02 |
| GGCAGAGCUCACCCCAUCGUGGCAAAGUGGCUGUGGAUAGGCUGCC | 0 |
| GGCAGAGCUCUACACAGCGUGGCAAAGUGGCUGUGGCUAAACGGCC | 0.02 |
| GGCAGAGCUCUACACAGCGUCGCAAAGUGGAUGUGGCUAGACUGCC | 0.03 |
